Measured values taken from PubChem BioAssay AID2147 (National Center for Advancing Translational Sciences (NCATS), 2009).
Several values for one entry are separate records, joined by “and”; a condition that tells them apart may be missing. Equal entries are not always repeated. The campaign covered roughly 230,000 compounds. About 3,600 (1.6%) were called active. The inconclusive results got no clear call from the source; some entries with a clear call stand among them for comparison. Calls come from the whole dose curve; as a rule, active = well fitted inhibition curve with a large enough effect (not every such curve was filed as active); inconclusive = small, poorly fitted or top-dose-only effect, or another doubt; inactive = no such curve, though single readings can be large or run the other way. Where the call is inconclusive, the potency comes from a doubtful curve fit.

Target: Lysine-specific demethylase 4E (Homo sapiens) (UniProt B2RXH2)
Sequence of UniProt B2RXH2 (B2RXH2 whole entry, looked up, the tested form may be a part): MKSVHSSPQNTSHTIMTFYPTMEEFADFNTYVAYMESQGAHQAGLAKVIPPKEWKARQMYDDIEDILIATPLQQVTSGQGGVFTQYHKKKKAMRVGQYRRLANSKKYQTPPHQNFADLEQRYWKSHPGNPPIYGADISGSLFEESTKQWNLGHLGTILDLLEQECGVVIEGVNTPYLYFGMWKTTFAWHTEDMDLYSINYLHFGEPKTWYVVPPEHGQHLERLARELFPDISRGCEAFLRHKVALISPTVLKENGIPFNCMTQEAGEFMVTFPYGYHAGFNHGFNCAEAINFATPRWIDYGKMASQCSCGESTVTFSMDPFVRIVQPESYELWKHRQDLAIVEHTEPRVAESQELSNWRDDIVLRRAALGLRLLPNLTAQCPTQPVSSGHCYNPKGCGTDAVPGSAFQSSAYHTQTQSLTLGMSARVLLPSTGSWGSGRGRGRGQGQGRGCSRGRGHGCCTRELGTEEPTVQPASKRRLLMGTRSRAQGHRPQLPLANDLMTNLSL
Test: qHTS Assay for Inhibitors of Human Jumonji Domain Containing 2E (JMJD2E)
Conditions: JMJD2E catalytic domain, FDH-coupled NADH fluorescence (FDH is formaldehyde dehydrogenase); series mostly up to 57.1 µM; activity change, negative = inhibition: at the top concentration
Note: nearly all actives have a fitted effect of over 50% in size.
Potency is the fitted concentration of half-maximal effect; tags give direction and shape of the fitted curve.
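Throughout, for activity change, negative = inhibition: 0% = wells with enzyme and -100% = buffer wells without enzyme.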

Compound	Potency	activity change, negative = inhibition
CC1=C(C)C(=O)C(CCCCC#CCCCC#CCO)=C(C)C1=O	inconclusive: 28.2 µM [inhibitor, single point] and inconclusive: 7.08 µM [inhibitor, full curve]	–
CCOC(=O)Cc1csc(NC(=O)c2csc3c2CCCC3)n1	–	inactive: -21.3%
CCCC(=O)Nc1ccc2c(c1)COC2=O	inconclusive: 39.8 µM [inhibitor, single point]	–
COc1cccc(N2CCN(C(=O)c3ccc(CSc4nc5ccncc5[nH]4)cc3)CC2)c1	–	inactive: -4.34%
COc1ccccc1CNC(=O)CSC1=NCCS1	–	inactive: -8.19%
c1ccc(-n2cnc3cc(NCc4ccco4)ccc32)cc1	inconclusive: 28.2 µM [inhibitor, partial curve]	–
C[n+]1cccc(C2C(C#N)=C(N)Oc3c2ccc2ccccc32)c1 (stereo not drawn)	inconclusive: 22.4 µM [inhibitor, partial curve]	–
COc1cc(NC(=O)c2cccs2)c(C(=O)OCC(=O)NCc2ccco2)cc1OC	inconclusive: 35.5 µM [inhibitor, single point]	–
CCN(CC)S(=O)(=O)c1ccc(N2CCOCC2)c(NC(=O)CNCCc2ccccc2)c1	inconclusive: 39.8 µM [inhibitor, single point]	–
Cc1cc2c(ncn2Cc2ccccc2)c([N+](=O)[O-])c1C	–	inactive: -3.97%
COc1cccc(C(C#N)N2N=C(C)CC2(C)C)c1O (stereo not drawn)	inconclusive: 1.12 µM [inhibitor, single point]	–
CCN1CCN(C(c2cc3cccc(C)c3[nH]c2=O)c2nnnn2Cc2ccccc2)CC1 (stereo not drawn)	inconclusive: 28.2 µM [inhibitor, single point]	–
CCn1cc(C(=O)NCC2COc3ccccc3O2)c2cc(OC)c(OC)cc2c1=O (stereo not drawn)	inconclusive: 28.2 µM [inhibitor, single point]	–
COc1cc(C2c3cc4c(cc3C(OC3OC5COC(C)O[C@@H]5C(O)C3O)C3COC(=O)C23)OCO4)cc(OC)c1O (stereo partly drawn)	–	inactive: 4.5%
COc1cc(/C=C2\C(=O)ON=C2c2ccccc2)cc(OC)c1OC	inconclusive: 20 µM [inhibitor, single point]	–
Nn1cc(-c2ccccc2)nc1SCC(=O)Nc1cccc(S(N)(=O)=O)c1	inconclusive: 28.2 µM [inhibitor, single point]	–
Cc1ccc2oc(=O)c3c4cc(O)c(O)c(C)c4oc3c2c1	inconclusive: 25.1 µM [inhibitor, single point]	–
COc1ccc(CN(C)CC(=O)Nc2sc3c(c2C#N)CCC3)cc1OC	–	inactive: -16.5%
COc1ccc(C2=NN(CC(=O)Nc3cc(C)ccc3C)C(=O)CC2)cc1	inconclusive: 28.2 µM [inhibitor, single point]	–
O=C(CSc1n[nH]c(-c2ccccc2)n1)NCc1cccc(C(=O)O)c1	–	inactive: 1.04%
CNC(=O)[C@]1(C)C[C@H]1[C@H](NC(=O)[C@]1(C)C[C@H]1[C@H](NC(=O)[C@]1(C)C[C@H]1[C@H](NC(=O)[C@]1(C)C[C@H]1[C@H](NC(=O)OCc1ccccc1)c1ccccc1)c1ccccc1)c1ccccc1)c1ccccc1	–	inactive: -0.937%
CC1=C/C(=C\c2ccc(Br)o2)C(=O)O1	inconclusive: 31.6 µM [inhibitor, single point]	–

Compound	Potency	activity change, negative = inhibition
CCC(=O)N(CCc1ccccc1)Cc1cc2cc(OC)ccc2[nH]c1=O	inconclusive: 28.2 µM [inhibitor, partial curve]	–
Cc1ccc(S(=O)(=O)N2CCN(S(=O)(=O)N3CCOCC3)CC2)cc1C	–	inactive: 3.02%
COc1ccc(CCNC(=O)CN2CCC(C)CC2)cc1OC	–	inactive: 2.29%
O=C(NNC(=O)c1ccccc1Cl)c1cc2cc(OC(F)(F)F)ccc2[nH]1	inconclusive: 35.5 µM [inhibitor, single point]	–
CCCCN(CC)CCCNC(=S)Nc1ccc2nc(N3CCN(CC)CC3)cc(C)c2c1	inconclusive: 10 µM [inhibitor, partial curve]	–
CCOC(=O)C1(Cc2ccc(OC)cc2)CCN(C(=O)CCn2cccn2)CC1	–	inactive: -4.13%
COc1cc(/C=N/NC(=O)CCC(=O)NCc2ccccc2)cc(OC)c1OC	–	inactive: -12.6%
O=c1c2cc(NC(=S)N3CCCCC3)ccc2nc2n1CCCCC2	inconclusive: 25.1 µM [inhibitor, partial curve]	–
Cc1ccc(-c2cc(C(=O)N/N=C/c3c[nH]c4ccccc34)n[nH]2)o1	inconclusive: 39.8 µM [inhibitor, single point]	–
CCOC(=O)Cc1csc(NC(=O)c2ccc(NC(C)=O)cc2)n1	–	inactive: 1.68%
CCOC(=O)CN1CCc2c(C)nc3c(-c4ccc(OC)c(OC)c4)cnn3c21	inconclusive: 35.5 µM [inhibitor, single point]	–
COCC(=O)N(C)C1(c2nnnn2CCOC(=O)Nc2cccc3ccccc23)CCCC1	inconclusive: 39.8 µM [inhibitor, single point]	–
COC(=O)c1cc(C)sc1NC(=O)c1cccnc1	inconclusive: 35.5 µM [inhibitor, single point]	–
CN(CCC1CCOCC1)C(=O)CC1C(=O)NCCN1CC1CCCCC1 (stereo not drawn)	inconclusive: 31.6 µM [inhibitor, partial curve]	–
O=C(C1CCN(S(=O)(=O)c2ccc(F)cc2)CC1)N1CC=C(c2ccccc2)CC1	inconclusive: 35.5 µM [inhibitor, single point]	–
CCCCC(=O)Nc1cc(C)c2c(=O)oc3ccccc3c2n1	inconclusive: 20 µM [inhibitor, single point]	–
COc1ccc(C(C[N+](=O)[O-])n2nc(C)cc2C)cc1 (stereo not drawn)	–	inactive: -17.4%
O=C(COC(=O)c1cc(S(=O)(=O)N2CCCC2)ccc1O)Nc1ccc(S(=O)(=O)N2CCOCC2)cc1	inconclusive: 28.2 µM [inhibitor, partial curve]	–
CN(C)c1ccc(CN(C(=O)c2ccc(Cl)c([N+](=O)[O-])c2)C2CCS(=O)(=O)C2)cc1 (stereo not drawn)	–	inactive: -2.01%
Cc1nc(NCc2ccco2)c2c(C)c(C)sc2n1	inconclusive: 22.4 µM [inhibitor, single point]	–
Cc1ccc(NC(=O)Cn2c(CCC(=O)O)ccc2-c2cccs2)cc1	inconclusive: 28.2 µM [inhibitor, single point]	–
